Experimental data published in PubChem BioAssay AID1508624 (National Center for Advancing Translational Sciences (NCATS), 2021).
Hit rate of the full screen: of about 48,000 compounds, about 120 (0.25%) were called active. Another 4% or so got no clear call; they are omitted. The call rests on the fitted dose curve; in most records, active means well fitted activation curve with a large enough effect; inconclusive means small, poorly fitted or top-dose-only effect, or another doubt; inactive means no such curve, though single readings can be large or run the other way. Some of the results follow.

experiment: Primary qHTS for Identification of Small Molecule Activators of Huntingtin-Antisense Promoter Activity; conditions: HEK293 HTT-AS promoter firefly luciferase reporter (activity 0% = vehicle and -100% = no light), 24 h; series mostly up to 57.5 µM; activity change, positive = activation: at the top concentration; further: nearly all actives have a fitted effect of over 55% in size
In short: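 Firefly luciferase readout (Dual-Glo, 10 min RT) after 24 h, 37 °C compound exposure (final up to 57.5 uM) of HEK293 reporter cells cultured 24 h beforehand; PTC124 at 50 uM final as control inhibitor; activity scaled vehicle 0%, zero RLU -100%.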

Activity change, positive = activation, inactive:
CSc1ccc(-c2nc3cccc(C)n3c2Nc2ccc3c(c2)OCO3)cc1 4.89%, COc1ccc(-c2nnc(SC(C)C(=O)O)o2)cc1 (centres undefined) -11.9%, O=C(CN1C(=O)CSc2ccc(S(=O)(=O)N3CCCC3)cc21)NCc1ccccc1Cl -21.2%, CC(=O)N1CCCc2cc(S(=O)(=O)N3CCCC(C(=O)NC(C)C)C3)ccc21 (centres undefined) -20.2%, Cc1ccc(OCC(=O)Nc2c(C(=O)c3ccc(Cl)cc3)oc3ccccc23)cc1C -11.7%, CCCCNC(=O)CCc1c(C)nc2cc(-c3ccccc3)nn2c1C -69.6%, COc1ccc(N2C(=O)C(CC(=O)Nc3ccccc3)N(CCC3=CCCCC3)C2=O)cc1 (centres undefined) -13.2%, Cc1[nH]c2ccccc2c1C1(O)C(=O)N(Cc2ccccc2)c2ccc(Cl)cc21 (centres undefined) -23.1%, Cc1cc(-c2ccc(S(=O)(=O)Nc3ccc(Cl)cc3)cc2)on1 -32.2%, CCOc1ccc(C2c3c(oc4ccc(C)cc4c3=O)C(=O)N2CCCN(C)C)cc1OC (centres undefined) -2.42%, CO[C@H]1C=CO[C@@]2(C)Oc3c(C)c(O)c4c(O)c(c(/C=N/N5CCN(C)CC5)c(O)c4c3C2=O)NC(=O)/C(C)=C\C=C[C@H](C)[C@H](O)[C@@H](C)[C@@H](O)[C@@H](C)[C@H](OC(C)=O)[C@@H]1C -2.28%, CC(C)Oc1ccc(CNC(=O)c2sc3ncccc3c2-n2cccc2)cc1 -26%, COc1ccc(-n2nc(C(=O)Nc3ccc(C(C)=O)cc3)nc2-c2ccccc2)cc1 -13.6%, CCc1ccc2occ(CC(=O)Nc3ccc(OC)c(Cl)c3)c2c1 -3.67%, Cc1nc(SCC(=O)Nc2ccc(C)c(Cl)c2)cc(-c2ccccc2)n1 -22.2%, CCOc1ccc(C(=O)Oc2c(Sc3ccccc3)c(C)nn2C(C)(C)C)cc1OCC -42.6%, COc1ccc(CN(Cc2ccco2)C(=O)COc2ccccc2OC)cc1 -13.6%, Nc1ncnc2c1nc(Cl)n2[C@@H]1O[C@H](CO)[C@@H](O)[C@@H]1O -29.9%, CCc1ccccc1-n1cnc2cc(C(=O)NC3CCCCCC3)ccc21 -16.5%, COc1ccccc1N1CCN(S(=O)(=O)c2ccc(F)c(C(=O)Nc3ccc(Cl)cc3C(F)(F)F)c2)CC1 -34.1%, O=C(Nc1ccccc1Cl)[C@H](CSCc1ccccc1)N1Cc2ccccc2C1=O -14.4%, O=C(c1ccc2c(c1)CCN2S(=O)(=O)c1ccccc1)N1CCN(c2ccccc2F)CC1 3.45%, CCCc1nc(C(C)(C)O)c(C(=O)O)n1Cc1ccc(-c2ccccc2-c2nn[nH]n2)cc1 -15.7%, CCOC(=O)C(CC)N1CCN(Cc2ccc(F)cc2)C(=O)C1=O (centres undefined) 6.19%, O=C(c1ccc(F)cc1)C1CCN(CCn2c(=O)[nH]c3ccccc3c2=O)CC1, O=C(Nc1nc2c(F)cccc2s1)c1ccc(S(=O)(=O)N2CCCc3ccccc32)cc1 -8.86%, CCn1nc(C)c2c(-c3ccccc3)cc(=O)n(C(C)C(=O)Nc3cc(C)ccc3C)c21 (centres undefined) -10.2%, COc1ccc(-c2ccc(NS(=O)(=O)c3cc(C)c(C)cc3C)cc2)nn1 -30.6%, CCc1ccc(NC(=O)Cn2nc(SC)c(S(=O)(=O)c3ccc(OC)cc3)c2N)cc1 -2.25%, COc1ccc(N2CCN(C(=O)C(C)n3nc(C)c4sc5ccccc5c4c3=O)CC2)cc1 (centres undefined) 2.35%, CCOC(=O)c1c(NC(=O)C2c3ccccc3Oc3ccccc32)sc2c1CCC(CC)C2 (centres undefined) -18.5%, CCc1ccc(NC(=O)Cn2c(=O)n(CCCC(=O)NCc3ccc4c(c3)OCO4)c(=O)c3ccccc32)cc1 -31.1%, CCS(=O)(=O)NCC(c1ccco1)N1CCN(c2ccc(F)cc2)CC1 (centres undefined) -24.6%, CC(=O)C1=C(c2cccc([N+](=O)[O-])c2)N(C(C)=O)n2c(nnc2-c2ccc(C)cc2)S1 -2.53%, CCOC(=O)c1c(S(=O)(=O)N2CCCC(C(=O)N3CCN(c4cc(C)ccc4C)CC3)C2)c(C)n(C)c1C (centres undefined) 15.4%, COc1ccc(-c2nnc(SCCOc3ccccc3C)o2)cc1OC -6.5%, Cc1cn(C)c(CC(=O)Nc2ccc(F)cc2Cl)c1C(=O)O -16.5%, O=S(=O)(c1ccc(Cl)cc1)c1nc(-c2cccs2)oc1SCc1ccccc1F -2.58%, Cc1cc(C)cc(OCCSc2nc3ccc(NC(=O)COc4ccccc4)cc3s2)c1 -29.3%, NC(=O)Nc1cc(-c2cccc(F)c2)sc1C(=O)N[C@H]1CCCNC1 -32.3%, Cc1ccc(OCC(=O)Nc2nonc2-c2ccc(Br)cc2)cc1C -9.08%, Cc1ccc(N2CC(NC(=O)c3cccs3)CC2=O)cc1 (centres undefined) -8.63%, CCCCNC(=O)c1ccc2c(c1)N=C(CC)c1ccccc1S2 -41.4%, O=C(CCCN1C(=O)c2cccnc2Oc2ccc(Cl)cc21)NCc1ccc(F)cc1 -21.1%, CN1CCN(CCNC(=O)c2cnn(-c3ccc(F)cc3)c2C2CCN(C(=O)OC(C)(C)C)CC2)CC1 -4.9%, O=C(Nc1ccccc1)Nc1nnc(SCC(=O)N2CCCCC2)s1 -15%, Cc1ccc(N2C(=O)CSC23C(=O)N(CC(=O)NCc2ccccc2)c2ccccc23)cc1 (centres undefined) -22.5%, CCOc1ccc(-n2cc(-c3ccccc3)c3c(NC4CCCC4)ncnc32)cc1 -18.6%, O=C(CN1C(=O)C2(SCC(=O)N2c2ccc(F)cc2)c2ccccc21)NC1CCCCC1 (centres undefined) -6.68%, Cc1ccc2c(c1)C(=O)OC(C(=O)Nc1ccccc1C(=O)O)C2 (centres undefined) 7.76%, CC1=C(c2ccc(C)c(C)c2)S(=O)(=O)N(Cc2ccc(C(=O)Nc3cc(F)ccc3F)cc2)C1=O -33.5%, Cc1nn2c(C)c(C(=O)N3CCN(c4ccc(Cl)cc4)CC3)cnc2c1-c1ccc(F)cc1 1.34%, CCN(CC)C(=O)c1ccc(O)c(OC)c1 -0.837%, O=S(=O)(c1ccc(-c2cnc(C3CC3)o2)cc1)N1CCN(c2ccccc2F)CC1 -3.47%, COc1cc2c(cc1OC)n(CC(=O)c1ccc(C)cc1C)c(=O)n1nc(CCn3nc(C)cc3C)nc21 -11.2%, O=C(NCCCN1CCN(c2cccc(Cl)c2)CC1)c1ccc2nc(Cc3ccccc3)oc2c1 -42%, Cc1cccc(Nc2sc(C(=O)c3ccc(Cl)cc3)c(N)c2C(N)=O)c1 9.31%, COc1ccc(NC(=O)c2cc(-c3ccccc3F)no2)cc1 14.3%, COc1cccc(CNC(=O)Cn2nc(C)c3sc4ccccc4c3c2=O)c1OC 10.8%
